This is one part of the list.
B1: PhoQ; a variant is named by its letters at X, in order, P23837 (parent)
chain: MKKLLRLFFPLSLRVRFLLATAAVVLVLSLAYGMVALIGYSVSFDKTTFRLLRGESNLFYTLAKWENNKLHVELPENIDKQSPTMTLIYDENGQLLWAQRDVPWLMKMIQPDWLKSNGFHEIEADVNDTSLLLSGDHSIQQQLQEVREDDDDAEMTHSVAVNVYPATSRMPKLTIVVVDTIPVELKSSYMVWSWFIYVLSANLLLVIPLLWVAAWWSLRPIEALAKEVRELEEHNRELLNPATTRELTSLVRNLNRLLKSERERYDKYRTTLTDLTHSLKTPLXXLQXXLRSLRSEKMSVSDAEPVMLEQISRISQQIGYYLHRASMRGGTLLSRELHPVAPLLDNLTSALNKVYQRKGVNISLDISPEISFVGEQNDFVEVMGNVLDNACKYCLEFVEISARQTDEHLYIVVEDDGPGIPLSKREVIFDRGQRVDTLRPGQGVGLAVAREITEQYEGKIVAGESMLGGARMEVIFGRQHSAPKDE

Variants of: B1
Test: enrichment ratio after two sorts for PhoP signalling (ratio (wild type AVST 3.29)); higher = more functional
Conditions: with PhoP (E. coli)

Compared with TTAS, RFCD is lower in enrichment ratio: 7.45 for the first, ≤ 0.25 for the second.

EVVR and QTTK cannot be ordered by enrichment ratio: ≤ 0.25 for the first, ≤ 0.25 for the second.

ECNA and TDDV cannot be ordered by enrichment ratio: ≤ 0.25 for the first, ≤ 0.25 for the second.

RSAG and EWWL cannot be ordered by enrichment ratio: ≤ 0.25 for the first, ≤ 0.25 for the second.

Compared with GAMI, EKFY is lower in enrichment ratio: 18.9 for the first, ≤ 0.25 for the second.

DQIL and NDSG cannot be ordered by enrichment ratio: ≤ 0.25 for the first, ≤ 0.25 for the second.

WHTH and QTRE cannot be ordered by enrichment ratio: ≤ 0.25 for the first, ≤ 0.25 for the second.

IDYY and VHPK cannot be ordered by enrichment ratio: ≤ 0.25 for the first, ≤ 0.25 for the second.

FQTM and NDIN cannot be ordered by enrichment ratio: ≤ 0.25 for the first, ≤ 0.25 for the second.

First: ILYD
Second: TQQM
The enrichment ratio of the first is lower: ≤ 0.25 for the first, 17.5 for the second.

SVHR and LQWH cannot be ordered by enrichment ratio: ≤ 0.25 for the first, ≤ 0.25 for the second.

VYAF and RYCM cannot be ordered by enrichment ratio: ≤ 0.25 for the first, ≤ 0.25 for the second.

RDGS and EYCK cannot be ordered by enrichment ratio: ≤ 0.25 for the first, ≤ 0.25 for the second.

RAFW and TWDS cannot be ordered by enrichment ratio: ≤ 0.25 for the first, ≤ 0.25 for the second.

KFDR and WFPF cannot be ordered by enrichment ratio: ≤ 0.25 for the first, ≤ 0.25 for the second.

LEMD and PSSF cannot be ordered by enrichment ratio: ≤ 0.25 for the first, ≤ 0.25 for the second.

GKPI and NEKP cannot be ordered by enrichment ratio: ≤ 0.25 for the first, ≤ 0.25 for the second.

RHYY and YPEH cannot be ordered by enrichment ratio: ≤ 0.25 for the first, ≤ 0.25 for the second.

Going from GSET to TILT, the enrichment ratio rises from ≤ 0.25 to 2.41.

First: SEQH
Second: DCAL
The enrichment ratio of the first is higher: 6.74 for the first, ≤ 0.25 for the second.

VEKH and QQIL cannot be ordered by enrichment ratio: ≤ 0.25 for the first, ≤ 0.25 for the second.

PPDS and VMWR cannot be ordered by enrichment ratio: ≤ 0.25 for the first, ≤ 0.25 for the second.

VYAR and WAID cannot be ordered by enrichment ratio: ≤ 0.25 for the first, ≤ 0.25 for the second.

YPKQ and NFQC cannot be ordered by enrichment ratio: ≤ 0.25 for the first, ≤ 0.25 for the second.

ADRE and FIRH cannot be ordered by enrichment ratio: ≤ 0.25 for the first, ≤ 0.25 for the second.

WFRN and YCNF cannot be ordered by enrichment ratio: ≤ 0.25 for the first, ≤ 0.25 for the second.

DADD and KTFI cannot be ordered by enrichment ratio: ≤ 0.25 for the first, ≤ 0.25 for the second.

LTMY and GQHR cannot be ordered by enrichment ratio: ≤ 0.25 for the first, ≤ 0.25 for the second.

NMEQ and VMGC cannot be ordered by enrichment ratio: ≤ 0.25 for the first, ≤ 0.25 for the second.

TAKF and GHYI cannot be ordered by enrichment ratio: ≤ 0.25 for the first, ≤ 0.25 for the second.

Compared with AILH, SWKK is lower in enrichment ratio: 3.54 for the first, ≤ 0.25 for the second.

YFMT and GMQN cannot be ordered by enrichment ratio: ≤ 0.25 for the first, ≤ 0.25 for the second.

First: KYMW
Second: WVYF
The enrichment ratio of the first is lower: ≤ 0.25 for the first, 1.23 for the second.

SRGI and PTNE cannot be ordered by enrichment ratio: ≤ 0.25 for the first, ≤ 0.25 for the second.

IMGI and WYVN cannot be ordered by enrichment ratio: ≤ 0.25 for the first, ≤ 0.25 for the second.

PMPG and ETQI cannot be ordered by enrichment ratio: ≤ 0.25 for the first, ≤ 0.25 for the second.

DKYH and KDKR cannot be ordered by enrichment ratio: ≤ 0.25 for the first, ≤ 0.25 for the second.

PGCV and GHCQ cannot be ordered by enrichment ratio: ≤ 0.25 for the first, ≤ 0.25 for the second.

WILG and MHNI cannot be ordered by enrichment ratio: ≤ 0.25 for the first, ≤ 0.25 for the second.

PYLL and TYHF cannot be ordered by enrichment ratio: ≤ 0.25 for the first, ≤ 0.25 for the second.

FWRN and GTER cannot be ordered by enrichment ratio: ≤ 0.25 for the first, ≤ 0.25 for the second.

ITYT and VEFH cannot be ordered by enrichment ratio: ≤ 0.25 for the first, ≤ 0.25 for the second.

First: WSSC
Second: TAWA
The enrichment ratio of the first is lower: 0.528 for the first, 3.58 for the second.

DCTA and DALK cannot be ordered by enrichment ratio: ≤ 0.25 for the first, ≤ 0.25 for the second.

Going from SQLC to DWKR, the enrichment ratio falls from 6.15 to ≤ 0.25.

HQWV and FTKC cannot be ordered by enrichment ratio: ≤ 0.25 for the first, ≤ 0.25 for the second.

NKNP and QEFR cannot be ordered by enrichment ratio: ≤ 0.25 for the first, ≤ 0.25 for the second.

HVTY and QYNA cannot be ordered by enrichment ratio: ≤ 0.25 for the first, ≤ 0.25 for the second.

KAKT and MTVE cannot be ordered by enrichment ratio: ≤ 0.25 for the first, ≤ 0.25 for the second.

RLNV and KALI cannot be ordered by enrichment ratio: ≤ 0.25 for the first, ≤ 0.25 for the second.

VPFP and MYQY cannot be ordered by enrichment ratio: ≤ 0.25 for the first, ≤ 0.25 for the second.

Compared with GAGR, TANA is higher in enrichment ratio: ≤ 0.25 for the first, 15.9 for the second.

Compared with EPIF, TDNY is higher in enrichment ratio: ≤ 0.25 for the first, 1.07 for the second.

PQIK and QMWW cannot be ordered by enrichment ratio: ≤ 0.25 for the first, ≤ 0.25 for the second.

GKHK and VGIG cannot be ordered by enrichment ratio: ≤ 0.25 for the first, ≤ 0.25 for the second.

First: TEHS
Second: DYFF
The enrichment ratio of the first is higher: 18.1 for the first, ≤ 0.25 for the second.

MGKN and IKYP cannot be ordered by enrichment ratio: ≤ 0.25 for the first, ≤ 0.25 for the second.

RVAK and ILRT cannot be ordered by enrichment ratio: ≤ 0.25 for the first, ≤ 0.25 for the second.

IWCS and DVSI cannot be ordered by enrichment ratio: ≤ 0.25 for the first, ≤ 0.25 for the second.

ADPN and GKDH cannot be ordered by enrichment ratio: ≤ 0.25 for the first, ≤ 0.25 for the second.

MVEP and HNYN cannot be ordered by enrichment ratio: ≤ 0.25 for the first, ≤ 0.25 for the second.

AYFV and DIEM cannot be ordered by enrichment ratio: ≤ 0.25 for the first, ≤ 0.25 for the second.

ITKM and PKPV cannot be ordered by enrichment ratio: ≤ 0.25 for the first, ≤ 0.25 for the second.

HKCH and ESGQ cannot be ordered by enrichment ratio: ≤ 0.25 for the first, ≤ 0.25 for the second.

ITLP and YWMF cannot be ordered by enrichment ratio: ≤ 0.25 for the first, ≤ 0.25 for the second.

ETLW and LRVE cannot be ordered by enrichment ratio: ≤ 0.25 for the first, ≤ 0.25 for the second.

AGGG and FDFH cannot be ordered by enrichment ratio: ≤ 0.25 for the first, ≤ 0.25 for the second.

YMNI and FHVS cannot be ordered by enrichment ratio: ≤ 0.25 for the first, ≤ 0.25 for the second.

Going from SQLE to GNAP, the enrichment ratio falls from 16.5 to ≤ 0.25.

LSNR and TRKR cannot be ordered by enrichment ratio: ≤ 0.25 for the first, ≤ 0.25 for the second.

NRCT and YFYF cannot be ordered by enrichment ratio: ≤ 0.25 for the first, ≤ 0.25 for the second.

DPIH and MDCC cannot be ordered by enrichment ratio: ≤ 0.25 for the first, ≤ 0.25 for the second.

LMFQ and GHKL cannot be ordered by enrichment ratio: ≤ 0.25 for the first, ≤ 0.25 for the second.

KLFG and AWYD cannot be ordered by enrichment ratio: ≤ 0.25 for the first, ≤ 0.25 for the second.

KMTM and YMQH cannot be ordered by enrichment ratio: ≤ 0.25 for the first, ≤ 0.25 for the second.

YVYL and NKYF cannot be ordered by enrichment ratio: ≤ 0.25 for the first, ≤ 0.25 for the second.

In the case of KKAW, the enrichment ratio is reported as ≤ 0.25.
